# Assay results as given in the supplement of paper PMC10037445.
# The full ranking holds about 2,900 compounds; the median of “NF-kB SEAP reporter activity, fold change vs agonist alone” is about 0.99, and the highest 2% start at about 2.6. This is one part of the list.
# Key:
# RAW-Dual [1] = assay: NF-kB SEAP reporter activity, fold change vs agonist alone; higher = enhanced NF-kB activity; conditions: library stock concentration (final ~1000-fold dilution): 10 mM
# How it was run: (§1)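 Library stock was pin-tooled at 50 nL into 384-well plates of RAW-Dual macrophages (50,000 cells/well, DMEM), followed 1 h later by a PRR agonist, and the cells were kept at 37 °C, 5% CO2. Supernatant collected after 20 hours was read for IRF by QuantiLuc luminescence and for NF-κB by QuantiBlue absorbance at 620 nm. Reporter activity is fold change over agonist-alone wells, and a well counted as cytotoxic when its IncuCyte confluency was below 70% of agonist controls in both mask sets.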
# RAW-Dual [2] = assay: NF-kB SEAP reporter activity, fold change vs agonist alone; cytotoxicity flag (confluency mask): not cytotoxic; higher = enhanced NF-kB activity
# How it was run: as §1
# [3] = agonist: ODN 1826 (TLR9) 0.5 ug/mL
# [4] = agonist: Pam2CSK4 (TLR2/6) 0.1 ug/mL
# [5] = agonist: Pam3CSK4 (TLR2/1) 0.1 ug/mL
# [6] = cytotoxicity flag (confluency mask): not cytotoxic, agonist: Imiquimod (TLR7) […]
# [7] = cytotoxicity flag (confluency mask): not cytotoxic, agonist: MPLA (TLR4) […]
structure (smiles),measurement,setting,value
CN1CCN(Cc2ccc(NC(=O)Cc3ccc(Oc4cc(NC(=O)C5CC5)ncn4)cc3)cc2C(F)(F)F)CC1,NF-kB SEAP reporter activity,"RAW-Dual [1]; cytotoxicity flag (confluency mask): cytotoxic (confluency <70% of control), agonist: Imiquimod (TLR7) […]",0.137
same,NF-kB SEAP reporter activity,"RAW-Dual [1]; cytotoxicity flag (confluency mask): cytotoxic (confluency <70% of control), agonist: MPLA (TLR4) […]",0.26
COc1cc(-c2cn(C)c(=O)c3cnccc23)cc(OC)c1CN(C)C (library stock concentration (final ~1000-fold dilution): 10 mM),NF-kB SEAP reporter activity,RAW-Dual [2]; agonist: LPS (TLR4) 0.1 ug/mL,1.17
same,NF-kB SEAP reporter activity,RAW-Dual [2]; [3],1.34
same,NF-kB SEAP reporter activity,RAW-Dual [2]; [4],0.935
same,NF-kB SEAP reporter activity,RAW-Dual [2]; [5],1.17
COc1cc(-c2cn(C)c(=O)c3cnccc23)cc(OC)c1CN(C)C,NF-kB SEAP reporter activity,RAW-Dual [1]; [6],1.22
same,NF-kB SEAP reporter activity,RAW-Dual [1]; [7],1.22
CN(C)CCC(c1ccc(Br)cc1)c1ccccn1.O=C(O)/C=C\C(=O)O (stereo not drawn),NF-kB SEAP reporter activity,RAW-Dual [1]; [6],1.41
same,NF-kB SEAP reporter activity,RAW-Dual [1]; [7],1.14
CN(C)CCC(c1ccc(Br)cc1)c1ccccn1.O=C(O)/C=C\C(=O)O (stereo not drawn) (library stock concentration (final ~1000-fold dilution): 10 mM),NF-kB SEAP reporter activity,RAW-Dual [2]; agonist: LPS (TLR4) 0.1 ug/mL,1.04
same,NF-kB SEAP reporter activity,RAW-Dual [2]; [3],0.916
same,NF-kB SEAP reporter activity,RAW-Dual [2]; [4],1.09
same,NF-kB SEAP reporter activity,RAW-Dual [2]; [5],1.11
CC1=C(CC(=O)O)c2cc(F)ccc2/C1=C\c1ccc(S(C)=O)cc1 (stereo not drawn),NF-kB SEAP reporter activity,RAW-Dual [1]; [6],1.12
same,NF-kB SEAP reporter activity,RAW-Dual [1]; [7],1.28
CC1=C(CC(=O)O)c2cc(F)ccc2/C1=C\c1ccc(S(C)=O)cc1 (stereo not drawn) (library stock concentration (final ~1000-fold dilution): 10 mM),NF-kB SEAP reporter activity,RAW-Dual [2]; agonist: LPS (TLR4) 0.1 ug/mL,1.36
same,NF-kB SEAP reporter activity,RAW-Dual [2]; [3],1.05
same,NF-kB SEAP reporter activity,RAW-Dual [2]; [4],1.04
same,NF-kB SEAP reporter activity,RAW-Dual [2]; [5],1.13
Cc1onc(-c2ccccc2)c1-c1ccc(S(N)(=O)=O)cc1,NF-kB SEAP reporter activity,RAW-Dual [1]; [6],1.1
same,NF-kB SEAP reporter activity,RAW-Dual [1]; [7],1.23
Cc1onc(-c2ccccc2)c1-c1ccc(S(N)(=O)=O)cc1 (library stock concentration (final ~1000-fold dilution): 10 mM),NF-kB SEAP reporter activity,RAW-Dual [2]; agonist: LPS (TLR4) 0.1 ug/mL,1.45
same,NF-kB SEAP reporter activity,RAW-Dual [2]; [3],0.984
same,NF-kB SEAP reporter activity,RAW-Dual [2]; [4],0.897
same,NF-kB SEAP reporter activity,RAW-Dual [2]; [5],1.12
N#Cc1ccc(C2CCc3cncn32)c(F)c1 (stereo not drawn) (library stock concentration (final ~1000-fold dilution): 10 mM),NF-kB SEAP reporter activity,RAW-Dual [2]; agonist: LPS (TLR4) 0.1 ug/mL,0.988
same,NF-kB SEAP reporter activity,RAW-Dual [2]; [3],1
same,NF-kB SEAP reporter activity,RAW-Dual [2]; [4],0.994
same,NF-kB SEAP reporter activity,RAW-Dual [2]; [5],1.22
N#Cc1ccc(C2CCc3cncn32)c(F)c1 (stereo not drawn),NF-kB SEAP reporter activity,RAW-Dual [1]; [6],0.889
same,NF-kB SEAP reporter activity,RAW-Dual [1]; [7],1.09
CCCc1cc(=O)[nH]c(=S)[nH]1 (library stock concentration (final ~1000-fold dilution): 10 mM),NF-kB SEAP reporter activity,RAW-Dual [2]; agonist: LPS (TLR4) 0.1 ug/mL,1.55
same,NF-kB SEAP reporter activity,RAW-Dual [2]; [3],1.36
same,NF-kB SEAP reporter activity,RAW-Dual [2]; [4],1.76
same,NF-kB SEAP reporter activity,RAW-Dual [2]; [5],1.89
CCCc1cc(=O)[nH]c(=S)[nH]1,NF-kB SEAP reporter activity,RAW-Dual [1]; [6],0.729
same,NF-kB SEAP reporter activity,RAW-Dual [1]; [7],1.05
